# Inconclusive results, whose numbers are uncertain, are shown with a selection of clear calls. For some assays here: Potencies beside an inconclusive call are fits to weak or partial responses and may not hold up. Active and inactive are the calls of the source. Unless noted, calls follow the shape of the dose curve; as a rule, active = well fitted curve in the direction sought with a large enough effect in the repeat runs; inconclusive = weak or mixed curves; inactive = no such curve, though single readings can be large; an effect the other way counts as inactive or inconclusive.
# Tests used:
# [1] = A CellTox Green Cytotoxicity Assay to monitor cytotoxicity in HepG2 cells - 40 hour (AID 1224879); also: potency is read from the fitted curve at half-maximal effect; nearly all actives have a fitted effect of over 40% in size
# Summary of the method: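 Measurements at 0, 8, 16, 24, 32 and 40 h of treatment captured CellTox Green fluorescence in HepG2 cells that had been co-plated with reagent and preincubated 5 h at 37 C/5% CO2.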
# [2] = A CellTox Green Cytotoxicity Assay to monitor cytotoxicity in HEK293 cells - 16 hour (AID 1224888); also: % is scaled to controls: 0 for no effect and ±100 for the full control effect; nearly all actives have a fitted effect of over 35% in size
# Summary of the method: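 Tox21 screen in HEK293: membrane-impermeant cyanine dye fluoresces on binding dead-cell DNA; compound pinned 5 h post-seeding, plates held at 37 C, signal read repeatedly through 40 h.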
# [3] = molecular target: Cytochrome P450 2D6 (Homo sapiens) (UniProt P10635); assay: Cytochrome P450 Family 2 Subfamily D Member 6 (CYP2D6) small molecule antagonists: luciferase reporter qHTS assay (AID 1671196); also: nearly all actives have a fitted effect of over 50% in size; also: potency is read from the fitted curve at half-maximal effect; as to activity change, negative = inhibition: % is scaled to controls: 0 for no effect and ±100 for the full control effect
# Summary of the method: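 Chemicals tested for interference with CYP2D6 activity; proluciferin substrate, NADPH regeneration, 1 h at room temperature, luminescent detection.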
# [4] = qHTS assay to identify small molecule antagonists of the sonic hedgehog signaling (Shh) pathway (AID 1259369; calls by dose curve; also: potency is read from the fitted curve at half-maximal effect; nearly all actives have a fitted effect of over 45% in size)
# Summary of the method: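 NIH/3T3 stable Gli1-Luc clone, 2,000 cells/well, 4hr settle; cpd + conditioned medium 24hr; Luc reagent 30min RT; luminescence.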
# [5] = qHTS assay for identifying genotoxic compounds that show differential cytotoxicity against isogenic chicken DT40 cell lines with known DNA damage response pathways - Rad54/Ku70 mutant cell line (AID 743015); conditions: DT40 Rad54/Ku70 mutant viability, CellTiter-Glo, 40 h; activity change, negative = cytotoxicity: at 66.8 µM (top of the series) unless noted; also: nearly all actives have a fitted effect of over 60% in size; also: potency is read from the fitted curve at half-maximal effect; as to activity change, negative = cytotoxicity: % is scaled to controls: 0 for no effect and ±100 for the full control effect
# [6] = qHTS assay to identify small molecule antagonists of the androgen receptor (AR) signaling pathway - cell viability counter screen (AID 743033; also: nearly all actives have a fitted effect of over 45% in size; also: potency is read from the fitted curve at half-maximal effect); conditions: AR-bla HEK293 viability, CellTiter-Glo luminescence, 16 h; activity change, negative = cytotoxicity: at 58.5 µM (top of the series) unless noted
# [7] = molecular target: Peroxisome proliferator-activated receptor gamma (Homo sapiens) (UniProt P37231); assay: qHTS assay to identify small molecule agonists of the peroxisome proliferator-activated receptor gamma (PPARg) signaling pathway (AID 743094; active = well fitted activation curve with a large enough effect in the signal ratio in the repeat runs, not every such curve was filed as active; inconclusive = weak or mixed curves, or effect the other way; inactive = no such curve, though single readings can be large or run the other way; the % refers to the signal ratio; also: % is scaled to controls: 0 for no effect and ±100 for the full control effect); conditions: HEK293H PPARg-UAS-bla, beta-lactamase FRET ratio, 17 h; activation: at 57 µM (top of the series) unless noted
# Summary of the method: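 Fluorescence-based beta-lactamase readout in HEK293H PPARg UAS-bla cells after 17 h compound exposure (37C) and 1 h B/G FRET substrate incubation at room temperature.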
# [8] = molecular target: Estrogen receptor beta (Homo sapiens) (UniProt Q92731); assay: qHTS assay to identify small molecule agonists of the estrogen receptor beta (ER-beta) signaling pathway (AID 1259377; active = well fitted activation curve with a large enough effect in the signal ratio in the repeat runs, not every such curve was filed as active; inconclusive = weak or mixed curves, or effect the other way; the % refers to the signal ratio; also: potency is read from the fitted curve at half-maximal effect); conditions: ER-beta-UAS-bla HEK293T, beta-lactamase FRET ratio, 16 h; activation: at 92.4 µM (top of the series) unless noted
# Summary of the method: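 In HEK293T cells bearing a UAS-beta-lactamase reporter under ER-beta control, DMSO-delivered compounds were incubated for 16 hr at 37C. Activity was detected as fluorescence 2 hours after LiveBLAzer B/G FRET substrate addition.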
# [9] = molecular target: Estrogen receptor beta (Homo sapiens) (UniProt Q92731); assay: qHTS assay to identify small molecule antagonists of the estrogen receptor beta (ER-beta) signaling pathway (AID 1259378; active = well fitted inhibition curve with a large enough effect in the signal ratio in the repeat runs, not every such curve was filed as active; inconclusive = weak or mixed curves, or effect the other way; inactive = no such curve, though single readings can be large or run the other way; the % refers to the signal ratio; also: % is scaled to controls: 0 for no effect and ±100 for the full control effect); conditions: ER-beta-UAS-bla HEK293T, beta-lactamase FRET ratio, 16 h; activity, negative = inhibition: at 92.4 µM (top of the series) unless noted
# Summary of the method: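 ER-beta-UAS-bla HEK293T (GripTite) cells in 2% charcoal-stripped FBS medium were preincubated 6 hr at 37C, dosed with compound, then stimulated with 1 nM E2 (final) for 16 hr; beta-lactamase reporter read by B/G FRET fluorescence after 2 hr substrate loading.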
# [10] = molecular target: Estrogen receptor (Homo sapiens) (UniProt P03372); assay: qHTS assay to identify small molecule antagonists of the estrogen receptor alpha (ER-alpha) signaling pathway (AID 743069; active = well fitted curve in the direction sought with a large enough effect in the signal ratio in the repeat runs, not every such curve was filed as active; inconclusive = weak or mixed curves, or effect the other way; inactive = no such curve, though single readings can be large or run the other way; the % refers to the signal ratio; also: potency is read from the fitted curve at half-maximal effect); conditions: HEK293 ER-alpha-UAS-bla, beta-lactamase ratio, antagonist mode; activity, negative = inhibition: at 69.4 µM (top of the series) unless noted
# Summary of the method: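 A 17beta-estradiol challenge was applied right after compound transfer to ER-alpha-UAS-bla HEK293 cells previously kept in charcoal-stripped serum. Plates stood 18 hr at 37C and 5% CO2; fluorescence was read following 2 hr FRET substrate loading at room temperature.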
# [11] = qHTS assay to identify small molecule antagonists of the estrogen receptor alpha (ER-alpha) signaling pathway using the BG1 cell line (AID 743080; calls by dose curve;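 also: BG1 cells stimulated with 17beta-estradiol alongside compound; % is scaled to controls: 0 for no effect and ±100 for the full control effect; nearly all actives have a fitted effect of over 25% in size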); conditions: BG1Luc4E2 ERE-luciferase antagonist mode, luminescence; activity change, negative = inhibition: at 70.3 µM (top of the series) unless noted
# Summary of the method: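 Luciferase inhibition measured with ONE-Glo after 30 min at RT in BG1Luc4E2 cells given test compounds and 17beta-estradiol for 21.5 h at 37 C; CellTiter-Fluor viability read in the same wells beforehand.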
# [12] = qHTS RealTime-Glo MT Cell Viability Assay in HEK293 cells - 0 hour (AID 1224880); also: nearly all actives have a fitted effect of over 45% in size; also: potency is read from the fitted curve at half-maximal effect
# Summary of the method: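 HEK293 + NanoLuc + prosubstrate, 600 cells/well; 5 h, 37 C/5% CO2; compound 23 nL in DMSO by pintool; 37 C; luminescence read at 0, 8, 16, 24, 32 and 40 h time points.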
# [13] = qHTS assay to identify small molecule agonists of the farnesoid-X-receptor (FXR) signaling pathway - cell viability counter screen (AID 743218); conditions: FXR-bla HEK293T viability, CellTiter-Glo luminescence, 16 h; viability change, negative = cytotoxic: at 62.6 µM (top of the series) unless noted; also: % is scaled to controls: 0 for no effect and ±100 for the full control effect; nearly all actives have a fitted effect of over 45% in size
# Summary of the method: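 Same-well cytotoxicity check on FXR-UAS-bla HEK 293T cells: 5 h attachment, 16 h compound at 37 C, CellTiter-Glo luminescence read at room temperature after 30 min.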
# [14] = qHTS assay to identify small molecule antagonists of the vitamin D receptor (VDR) signaling pathway - cell viability counter screen (AID 743225); conditions: VDR-bla HEK293T viability, CellTiter-Glo luminescence, 16 h; viability change, negative = cytotoxic: at 61 µM (top of the series) unless noted; also: potency is read from the fitted curve at half-maximal effect; nearly all actives have a fitted effect of over 50% in size
# Summary of the method: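 In this counter screen, VDR-bla HEK 293T cells receive test compound plus 3 nM final calcitriol for 16 h at 37C. Room-temperature steps of 2 h with the beta-lactamase substrate, then 30 min with CellTiter-Glo, precede the luminescence read.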
# [15] = qHTS assay to identify small molecule agonists of the estrogen receptor beta (ER-beta) signaling pathway - cell viability counter screen (AID 1259380); also: % is scaled to controls: 0 for no effect and ±100 for the full control effect; nearly all actives have a fitted effect of over 30% in size
# Summary of the method: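 Measured: luminescence from CellTiter-Glo after 30 min at room temperature, added to wells already read for the LiveBLAzer FRET reporter (2 hr substrate); ER-beta-UAS-bla HEK293T cells had 16 hr compound treatment at 37C, 5% CO2.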
# [16] = molecular target: Progesterone receptor (Homo sapiens) (UniProt P06401); assay: qHTS assay to identify small molecule agonists of the progesterone receptor (PR) signaling pathway (AID 1346784; calls by dose curve; also: nearly all actives have a fitted effect of over 30% in size; also: potency is read from the fitted curve at half-maximal effect); conditions: PR-UAS-bla HEK293T, beta-lactamase FRET ratio, 16 h; activation: at 92.4 µM (top of the series) unless noted
# Summary of the method: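 Using charcoal-stripped serum (2%) to limit endogenous steroids, PR-UAS-bla HEK 293T cells received compounds for 16 hr at 37C after 6 hr plating; beta-lactamase FRET fluorescence was recorded following 2 hr substrate loading at room temperature.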
# [17] = qHTS assay to identify small molecule antagonists of the progesterone receptor (PR) signaling pathway - cell viability counter screen (AID 1346798); also: % is scaled to controls: 0 for no effect and ±100 for the full control effect; nearly all actives have a fitted effect of over 50% in size
# Summary of the method: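 ATP content as viability readout: CellTiter-Glo luminescence, 30 min room temperature, in PR-UAS-bla HEK293T cells after 16 hr compound/R5020 treatment at 37C and 5% CO2.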
# [18] = Caspase-3/7 induction in HepG2 cells by small molecules, qHTS cell viability counter screen (AID 1346981); also: potency is read from the fitted curve at half-maximal effect; nearly all actives have a fitted effect of over 30% in size
# Summary of the method: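 Treatment of HepG2 cells with DMSO-delivered compounds ran 16 hr at 37 C following a 5-hr pre-incubation of 2,000 cells/well. CellTiter-Fluor fluorescence, read after 1 hr, served as the viability measure in a qHTS format.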
# Tags tell the direction and shape of the fitted curve or compound fluorescence and quenching.
# Sequence of UniProt Q92731 (Q92731 whole entry, looked up): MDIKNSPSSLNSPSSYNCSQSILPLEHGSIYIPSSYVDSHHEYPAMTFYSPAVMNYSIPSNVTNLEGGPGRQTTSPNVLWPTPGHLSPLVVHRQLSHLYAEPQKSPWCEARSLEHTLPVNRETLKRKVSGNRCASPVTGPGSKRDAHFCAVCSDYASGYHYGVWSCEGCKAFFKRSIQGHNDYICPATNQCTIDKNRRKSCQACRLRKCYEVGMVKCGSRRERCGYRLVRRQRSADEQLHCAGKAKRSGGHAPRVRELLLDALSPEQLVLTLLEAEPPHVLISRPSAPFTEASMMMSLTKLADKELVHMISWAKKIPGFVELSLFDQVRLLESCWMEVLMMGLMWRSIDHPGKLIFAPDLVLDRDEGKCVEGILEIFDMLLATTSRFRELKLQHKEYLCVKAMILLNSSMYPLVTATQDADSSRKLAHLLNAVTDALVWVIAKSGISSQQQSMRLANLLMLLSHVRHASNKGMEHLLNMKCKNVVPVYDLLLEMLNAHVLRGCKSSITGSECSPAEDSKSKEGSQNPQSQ
# Sequence of UniProt P10635 (P10635 whole entry, looked up): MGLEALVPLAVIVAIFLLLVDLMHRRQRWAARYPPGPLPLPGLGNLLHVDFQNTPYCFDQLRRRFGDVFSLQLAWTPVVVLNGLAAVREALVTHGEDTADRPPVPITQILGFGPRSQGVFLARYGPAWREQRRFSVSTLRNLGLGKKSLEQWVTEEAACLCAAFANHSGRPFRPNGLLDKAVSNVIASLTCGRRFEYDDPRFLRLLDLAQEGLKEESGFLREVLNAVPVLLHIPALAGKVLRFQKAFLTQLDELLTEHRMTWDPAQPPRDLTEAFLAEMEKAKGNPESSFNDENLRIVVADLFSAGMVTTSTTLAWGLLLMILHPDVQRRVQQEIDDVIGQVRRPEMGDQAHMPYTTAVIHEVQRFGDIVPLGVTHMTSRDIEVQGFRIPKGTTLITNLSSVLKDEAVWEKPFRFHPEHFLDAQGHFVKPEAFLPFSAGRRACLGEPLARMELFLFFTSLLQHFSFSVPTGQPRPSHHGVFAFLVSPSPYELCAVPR
# Sequence of UniProt P06401 (P06401 whole entry, looked up): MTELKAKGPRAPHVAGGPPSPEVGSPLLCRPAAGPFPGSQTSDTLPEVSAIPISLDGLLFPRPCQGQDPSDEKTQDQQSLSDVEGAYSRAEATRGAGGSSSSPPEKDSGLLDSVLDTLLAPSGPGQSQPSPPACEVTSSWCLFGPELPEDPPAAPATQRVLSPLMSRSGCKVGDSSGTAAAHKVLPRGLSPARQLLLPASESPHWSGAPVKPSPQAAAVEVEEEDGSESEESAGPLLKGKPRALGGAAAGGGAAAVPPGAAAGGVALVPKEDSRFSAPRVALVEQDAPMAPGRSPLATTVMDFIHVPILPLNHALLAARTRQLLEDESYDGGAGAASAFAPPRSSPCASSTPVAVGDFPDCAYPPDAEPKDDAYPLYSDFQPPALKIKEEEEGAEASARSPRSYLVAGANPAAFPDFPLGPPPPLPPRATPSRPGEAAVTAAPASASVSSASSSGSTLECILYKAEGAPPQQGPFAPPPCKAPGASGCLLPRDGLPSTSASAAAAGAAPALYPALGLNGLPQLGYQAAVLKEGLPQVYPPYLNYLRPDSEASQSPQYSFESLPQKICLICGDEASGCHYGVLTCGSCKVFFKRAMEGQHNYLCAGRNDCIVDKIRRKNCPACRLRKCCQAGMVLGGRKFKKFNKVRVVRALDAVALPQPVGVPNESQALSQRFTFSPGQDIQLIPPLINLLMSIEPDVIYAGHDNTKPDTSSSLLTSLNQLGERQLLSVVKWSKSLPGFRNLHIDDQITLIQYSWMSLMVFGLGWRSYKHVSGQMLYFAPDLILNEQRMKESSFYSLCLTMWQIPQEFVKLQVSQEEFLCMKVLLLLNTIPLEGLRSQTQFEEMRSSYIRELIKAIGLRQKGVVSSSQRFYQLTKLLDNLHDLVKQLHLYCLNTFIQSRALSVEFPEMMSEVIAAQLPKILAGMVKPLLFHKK
# Sequence of UniProt P37231 (P37231 whole entry, looked up): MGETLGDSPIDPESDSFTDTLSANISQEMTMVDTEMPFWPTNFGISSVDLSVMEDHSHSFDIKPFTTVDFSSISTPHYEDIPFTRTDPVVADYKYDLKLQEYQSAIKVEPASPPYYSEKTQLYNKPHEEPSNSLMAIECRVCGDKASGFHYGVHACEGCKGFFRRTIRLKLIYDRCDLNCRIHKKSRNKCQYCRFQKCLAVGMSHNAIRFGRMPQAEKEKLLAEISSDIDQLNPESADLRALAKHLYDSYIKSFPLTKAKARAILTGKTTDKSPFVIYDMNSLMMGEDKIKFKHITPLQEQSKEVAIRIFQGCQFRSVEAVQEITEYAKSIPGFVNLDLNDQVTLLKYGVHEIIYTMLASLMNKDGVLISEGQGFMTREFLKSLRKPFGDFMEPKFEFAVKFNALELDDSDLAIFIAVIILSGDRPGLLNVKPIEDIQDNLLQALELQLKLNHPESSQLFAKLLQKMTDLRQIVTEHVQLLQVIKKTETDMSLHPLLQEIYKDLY
# Sequence of UniProt P03372 (P03372 whole entry, looked up): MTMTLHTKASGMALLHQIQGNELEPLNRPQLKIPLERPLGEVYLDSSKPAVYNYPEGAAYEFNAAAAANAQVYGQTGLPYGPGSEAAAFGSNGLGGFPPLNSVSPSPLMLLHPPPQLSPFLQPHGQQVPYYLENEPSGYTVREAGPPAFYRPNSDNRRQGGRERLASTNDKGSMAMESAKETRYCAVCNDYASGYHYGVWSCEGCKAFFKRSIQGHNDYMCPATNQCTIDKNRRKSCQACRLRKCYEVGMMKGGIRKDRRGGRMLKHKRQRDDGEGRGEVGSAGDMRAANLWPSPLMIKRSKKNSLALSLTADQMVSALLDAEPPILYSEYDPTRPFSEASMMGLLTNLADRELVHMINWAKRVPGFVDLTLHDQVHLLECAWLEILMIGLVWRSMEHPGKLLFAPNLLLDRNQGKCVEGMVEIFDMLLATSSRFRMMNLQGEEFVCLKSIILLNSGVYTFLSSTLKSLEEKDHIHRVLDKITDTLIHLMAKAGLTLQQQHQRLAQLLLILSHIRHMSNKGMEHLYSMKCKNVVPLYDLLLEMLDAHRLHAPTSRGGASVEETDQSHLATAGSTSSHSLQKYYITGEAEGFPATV
smiles,measurement,setting,value
CC(=O)NCc1c(I)c(NC(C)=O)c(I)c(C(=O)O)c1I,Potency,[1],"inconclusive: 10.7 µM [activator, single point]"
same,Potency,[2],inactive
same,Potency,[3],"inconclusive: 30.9 µM [inhibitor, partial curve, poor fit]"
Cc1[nH]c(=O)c(C#N)cc1-c1ccc2nccn2c1,Potency,[4],"inconclusive: 9.44 µM [inhibitor, partial curve, poor fit]"
same,Potency,[3],inactive
CCCCCNCCCCC,Potency,[5],inactive
same,Potency,[6],inactive
same,Potency,[7],inactive
same,activation,[8],inconclusive: 4.48%
same,"activity, negative = inhibition",[9],inconclusive: 24.7%
same,Potency,[3],"inconclusive: 35.6 µM [inhibitor, partial curve]"
O=C(O)CCC(=O)Nc1ccc(S(=O)(=O)Nc2nccs2)cc1,Potency,[5],inactive
same,Potency,[1],"inconclusive: 26.8 µM [activator, single point]"
same,"activity, negative = inhibition",[9],inconclusive: 20.9% [at 42.5 µM]
COc1cc(C(=O)OC(COCCC(C)C)CN2CCOCC2)cc(OC)c1OC (stereo not drawn),Potency,[5],"inconclusive: 33.5 µM [cytotoxic, single point]"
same,Potency,[6],"inconclusive: 0.0379 µM [cytotoxic, full curve, poor fit]"
same,Potency,[10],"inconclusive: 23.9 µM [fluorescent, partial curve, poor fit]"
same,Potency,[11],inactive
same,Potency,[12],inactive
C=C(C)[C@@H]1CC=C(C)C(=O)C1,Potency,[13],inactive
N=C(N)N1CCc2ccccc2C1,Potency,[5],inactive
same,Potency,[14],"inconclusive: 0.0107 µM [cytotoxic, single point]"
same,"activity change, negative = cytotoxicity",[15],inactive: 1.92% [at 8.39 µM]
same,Potency,[16],"inconclusive: 1.68 µM [falling, partial curve, poor fit]"
same,"activity change, negative = cytotoxicity",[17],inactive: 3.01% [at 8.39 µM]
CN(C)CCN(Cc1ccsc1)c1ccccn1,Potency,[17],inactive
same,Potency,[3],active: 3.89 µM
CCOC(=O)OCC/C(SC(=O)OCC)=C(\C)N(C=O)Cc1cnc(C)nc1N,Potency,[15],inactive
CC(C)(CO)CO,Potency,[8],"inconclusive: 24.3 µM [activator, partial curve, poor fit]"
same,Potency,[16],"inconclusive: 0.243 µM [cytotoxic, single point]"
same,Potency,[18],"inconclusive: 12.2 µM [rising, partial curve]"
C=COCC1CCC(COC=C)CC1 (stereo not drawn),Potency,[5],"inconclusive: 24.3 µM [cytotoxic, full curve]"
same,Potency,[1],"inconclusive: 21.9 µM [activator, single point]"
same,Potency,[12],"inconclusive: 0.436 µM [falling, single point]"
C[C@H]1C[C@H]2[C@@H]3CCC4=CC(=O)C=C[C@]4(C)[C@@]3(F)[C@@H](O)C[C@]2(C)[C@@]1(O)C(=O)CO,Potency,[13],inactive
same,Potency,[16],active: 11.9 µM
same,activation,[16],inconclusive: 46.1%
same,Potency,[18],"inconclusive: 1.93 µM [rising, partial curve, poor fit]"

# Source: PubChem BioAssay (Tox21)
